Among the data in the supplement of paper PMC11880418 are ALDHbr values, retold here.

Where a name gives a salt, the structure may show the parent alone. The list shows a part of the results. The data scatter; read single values as rough.

Common to all, as to test: ALDHbr (CSC) cell proportion score relative to DMSO vehicle (ratio to DMSO); breast (SUM159) / gastric (MKN45) / pancreatic (PANC1) / colon cancer lines; ALDHbr cells have high ALDH activity and are rich in cancer stem cells (CSC); higher = more CSC (ALDHbr) cells remaining
Conditions in all cases: 10 µM; 72 h

Assay [1] concerns MKN45.
For assay [2], the system named is PANC1.
Assay [3] relates to SUM159.
Assay [4] concerns T84.
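Note: High-content imaging of ALDEFLUOR-stained cells with Hoechst-labelled nuclei in 384-well plates, triplicate wells, scored as Z-score against 0.1% DMSO vehicle, negative meaning fewer ALDHbr cells.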

For `CC(Oc1ccccc1)C(=O)N[C@@H]1C(=O)N2[C@@H]1SC(C)(C)[C@@H]2C(=O)O` (some centres not stated) [Phenethicillin potassium salt], the ALDHbr in assay [1] was 0.965; in assay [2], 0.934; in assay [3], 1.04; in assay [4], 1.27.
For `CN(C)CCN(Cc1ccc(Cl)cc1)c1ccccn1` [Chloropyramine hydrochloride] the same measures were 0.949, 1.08, 0.965 and 0.888.
Turning to `CC(=O)CC(c1ccccc1)c1c(O)c2ccccc2oc1=O` (configuration not stated) [Warfarin], the ALDHbr in assay [1] is 0.896; in assay [2], 0.826; in assay [3] it was 0.954; in assay [4], 1.18.
Consider `CC(C)C(=O)Nc1ccc([N+](=O)[O-])c(C(F)(F)F)c1` [Flutamide], for which the ALDHbr was 0.932 in assay [1], 0.868 in assay [2], 1.38 in assay [3] and 0.895 in assay [4].
On to `CC1(C)S[C@@H]2[C@H](NC(=O)[C@H](C(=O)O)c3ccsc3)C(=O)N2[C@H]1C(=O)O` [Ticarcillin sodium], for which the ALDHbr in assay [1] came out at 1.01; in assay [2] it was 0.931; in assay [3], 0.824; in assay [4], 0.94.
As for `CN(c1nccc(=O)[nH]1)C1CCN(c2nc3ccccc3n2Cc2ccc(F)cc2)CC1` [Mizolastine], the ALDHbr worked out at 1.19 in assay [1], 0.575 in assay [2], 0.779 in assay [3] and 0.997 in assay [4].
As for `CC1(C)O[C@@H]2C[C@H]3[C@@H]4C[C@H](F)C5=CC(=O)C=C[C@]5(C)[C@@]4(F)[C@@H](O)C[C@]3(C)[C@]2(C(=O)CO)O1` [Fluocinolone acetonide], the ALDHbr is 0.897 in assay [1], 0.563 in assay [2], 1.12 in assay [3] and 1.02 in assay [4].
In the case of `CCn1cc(C(=O)O)c(=O)c2cc(F)c(N3CCNCC3)nc21` [Enoxacin], the ALDHbr in assay [1] came to 1.04; in assay [2] it was 1.01; in assay [3], 0.872; in assay [4] it was 0.922.
Take `CN1CCC[C@@H]1CCO[C@](C)(c1ccccc1)c1ccc(Cl)cc1` [Clemastine fumarate]: the ALDHbr was found to be 0.768 in assay [1], 0.998 in assay [2], 0.576 in assay [3] and 0.13 in assay [4].
As for `CN(C)CC/C=C1/c2ccccc2COc2ccc(CC(=O)O)cc21` [Olopatadine hydrochloride], the ALDHbr in assay [1] came out at 1.19; in assay [2] it was 0.922; in assay [3] it was 0.849; in assay [4], 0.816.
In the same order, the values of `Clc1ccc(Nc2nnc(Cc3ccncc3)c3ccccc23)cc1` [Vatalanib] are 0.833, 0.628, 0.865 and 0.746.
As for `CCC(=O)O[C@]1(C(=O)SCF)[C@H](C)C[C@H]2[C@@H]3C[C@H](F)C4=CC(=O)C=C[C@]4(C)[C@@]3(F)[C@@H](O)C[C@@]21C` [Fluticasone propionate], the ALDHbr in assay [1] stood at 1.26; in assay [2], 0.658; in assay [3], 1.52; in assay [4] it was 0.968.
In the same order, the values of `c1ccc(CN(CC2=NCCN2)c2ccccc2)cc1` [Antazoline hydrochloride] are 1.18, 0.894, 0.815 and 0.967.
Take `CCCCC(CC)CN1CN(CC(CC)CCCC)CC(C)(N)C1` (configuration not stated) [Hexetidine]: the ALDHbr in assay [1] is 0.915; in assay [2] it was 1.53; in assay [3], 1.14; in assay [4], 1.37.
In the case of `CCCCC1C(=O)N(c2ccccc2)N(c2ccccc2)C1=O` [Phenylbutazone], the ALDHbr in assay [1] was found to be 1.26; in assay [2], 0.987; in assay [3], 1.02; in assay [4], 0.947.
Regarding `Cc1c(Cl)cccc1Nc1ncccc1C(=O)O` [Clonixin Lysinate], the ALDHbr in assay [1] was found to be 1.14; in assay [2], 0.969; in assay [3], 0.842; in assay [4], 0.835.
On to `O=C1c2ccccc2C(=O)C1c1ccccc1` [Phenindione], for which the ALDHbr in assay [1] was determined as 1.17; in assay [2], 0.888; in assay [3] it was 1.11; in assay [4], 0.784.
For the molecule `COC1=C(OC)C(=O)C(CCCCCCCCCCO)=C(C)C1=O` [Idebenone], the ALDHbr in assay [1] was determined as 1.11; in assay [2] it was 1.1; in assay [3], 0.902; in assay [4], 0.804.
`O=C(O)CNC(=O)C(CS)Cc1ccccc1` (configuration not stated) [Thiorphan]: the ALDHbr worked out at 0.857 in assay [1], 1.11 in assay [2], 1.18 in assay [3] and 1.02 in assay [4].
As for `COc1ccc(/C=C/C(=O)Nc2ccccc2C(=O)O)cc1OC` [Tranilast], the ALDHbr in assay [1] was 0.982; in assay [2] it was 0.887; in assay [3], 1.38; in assay [4], 0.851.
Regarding `COC(=O)[C@@H]1[C@H]2C[C@H]3c4[nH]c5ccccc5c4CCN3C[C@@H]2CC[C@@H]1O` [Yohimbine hydrochloride], the ALDHbr was 1.35 in assay [1], 0.956 in assay [2], 0.856 in assay [3] and 0.944 in assay [4].
For `CC(C)/N=c1\cc2n(-c3ccc(Cl)cc3)c3ccccc3nc-2cc1Nc1ccc(Cl)cc1` [Clofazimine] the same measures were 0.427, 0.515, 0.873 and 0.0833.
For `NC[C@H]1O[C@H](O[C@H]2[C@H](O)[C@@H](O[C@H]3O[C@H](CO)[C@@H](O)[C@H](N)[C@H]3O)[C@H](N)C[C@@H]2N)[C@H](N)C[C@@H]1O` [Tobramycin] the same measures were 0.929, 0.995, 0.993 and 0.937.
`C[N+]1(C)CCC(OC(=O)C(O)(c2ccccc2)C2CCCC2)C1` (configuration not stated) [Glycopyrrolate]: the ALDHbr in assay [1] was 0.963; in assay [2] it was 0.91; in assay [3], 1.17; in assay [4], 0.895.
Consider `C[C@@H](c1ncncc1F)[C@](O)(Cn1cncn1)c1ccc(F)cc1F` [Voriconazole], for which the ALDHbr in assay [1] came to 1.06; in assay [2] it was 0.891; in assay [3], 1.04; in assay [4], 0.985.
Take `CCN(CC)C(=O)Nc1ccc(OCC(O)CNC(C)(C)C)c(C(C)=O)c1` (configuration not stated) [Celiprolol hydrochloride]: the ALDHbr came out at 0.957 in assay [1], 0.873 in assay [2], 1.68 in assay [3] and 1.14 in assay [4].
Turning to `O=C(O)CCC(=O)c1ccc(-c2ccccc2)cc1` [Fenbufen], the ALDHbr in assay [1] worked out at 0.994; in assay [2], 0.9; in assay [3], 0.925; in assay [4], 0.833.
For `Nc1nc(=O)c2nc(CNc3ccc(C(=O)N[C@@H](CCC(=O)O)C(=O)O)cc3)cnc2[nH]1` [Folic acid] the same measures were 1.06, 0.884, 1 and 0.939.
